These results are taken from the supplement of paper PMC10369915.

The list shows a part of the results. Rule as the data show it: active = 3.2 or more and inactive = the rest. Most of these values are background signal.
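Also: displayed peptides selected on beads carrying the immobilized SH2 domain, with library peptides lacking any tyrosine serving as negative controls.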

The first assay addresses SHP2 C-SH2 domain E139D. Description: enrichment score (SH2-bound / input frequency) (ratio); bacterial display of known human phosphotyrosine sites (pTyr-Var adds point mutants) read by sequencing; higher = stronger binding; tyrosines were phosphorylated by kinases first. To be noted: peptide library: pTyr-Var.
With CGTPDYIAPEI [PRKCG_Y521], the enrichment score was inactive: 0.694.

For the molecule ECKEAYHEGEC [PRKN_Y372], the enrichment score is inactive: 0.305.

With FEPWVYSFSYE [PRKDC_Y647], the enrichment score was inactive: 1.03.

Consider KGRGEYFAIKA [PRKCD_Y374], for which the enrichment score is inactive: 1.39.

On to FPLELYERVRI [PRKCG_Y312_M317I_YF], for which the enrichment score was inactive: 1.

For GSIQQYTFKQE [PRG4_Y1271_I1272T_YF], the enrichment score is inactive: 0.931.

Regarding CGSLLYGLVHQ [PRKCG_Y122], the enrichment score was inactive: 1.15.

LGPSDYFGETA [PRKAR1A_Y323_I327T]: the enrichment score was inactive: 0.527.

For the molecule LMQAEYWHDPI [PPT1_Y185_V181M], the enrichment score was inactive: 1.19.

For the molecule FEPWVYSLSFE [PRKDC_Y647_F649L_YF], the enrichment score was inactive: 0.963.

For PEIIAYQPYGK [PRKCG_Y529], the enrichment score was inactive: 0.68.

Turning to FSAPNCCFRCG [PPP2CA_Y265_Y265C_YF], the enrichment score was inactive: 0.913.

Turning to NQILPYIEELV [PPP2R1B_Y341_K343E], the enrichment score is inactive: 0.845.

As to AKKIKYFEGVS [PRKDC_Y682], the enrichment score is inactive: 0.974.

On to RSIGEYDVLRA [PRKDC_Y2936_G2941A], for which the enrichment score is inactive: 0.655.

As to RGRKVYLEDGF [PRIM2_Y201], the enrichment score was inactive: 0.245.

Regarding YPLELYERVRM [PRKCG_Y312], the enrichment score was inactive: 0.921.

For GSIQQYIFKQE [PRG4_Y1271_YF], the enrichment score was inactive: 1.14.

For GSIQQYTYKQE [PRG4_Y1271_I1272T], the enrichment score is inactive: 0.74.

Another assay has as its target SHP2 C-SH2 domain wild-type. The description is as above. To be noted: peptide library: pTyr-Var.
CGTPDYIAPEI [PRKCG_Y521]: the enrichment score is inactive: 0.615.

As to ECKEAYHEGEC [PRKN_Y372], the enrichment score was inactive: 0.373.

Turning to FEPWVYSFSYE [PRKDC_Y647], the enrichment score was inactive: 1.18.

For the molecule KGRGEYFAIKA [PRKCD_Y374], the enrichment score is inactive: 1.18.

For FPLELYERVRI [PRKCG_Y312_M317I_YF], the enrichment score was inactive: 0.98.

For GSIQQYTFKQE [PRG4_Y1271_I1272T_YF], the enrichment score was inactive: 0.999.

CGSLLYGLVHQ [PRKCG_Y122]: the enrichment score is inactive: 1.09.

In the case of LGPSDYFGETA [PRKAR1A_Y323_I327T], the enrichment score was inactive: 0.539.

Turning to LMQAEYWHDPI [PPT1_Y185_V181M], the enrichment score was inactive: 1.14.

With FEPWVYSLSFE [PRKDC_Y647_F649L_YF], the enrichment score was inactive: 0.753.

Turning to PEIIAYQPYGK [PRKCG_Y529], the enrichment score was inactive: 0.698.

FSAPNCCFRCG [PPP2CA_Y265_Y265C_YF]: the enrichment score is inactive: 0.791.

With NQILPYIEELV [PPP2R1B_Y341_K343E], the enrichment score was inactive: 0.954.

For AKKIKYFEGVS [PRKDC_Y682], the enrichment score was inactive: 0.863.

In the case of RSIGEYDVLRA [PRKDC_Y2936_G2941A], the enrichment score is inactive: 0.858.

With RGRKVYLEDGF [PRIM2_Y201], the enrichment score is inactive: 0.269.

In the case of YPLELYERVRM [PRKCG_Y312], the enrichment score was inactive: 0.92.

For the molecule GSIQQYIFKQE [PRG4_Y1271_YF], the enrichment score is inactive: 0.65.

Turning to GSIQQYTYKQE [PRG4_Y1271_I1272T], the enrichment score was inactive: 1.1.

The target in the next assay is SHP2 N-SH2 domain L43F. The description is as above. The note with it: peptide library: pTyr-Var.
Consider CGTPDYIAPEI [PRKCG_Y521], for which the enrichment score is inactive: 0.639.

As to ECKEAYHEGEC [PRKN_Y372], the enrichment score was inactive: 0.352.

Take FEPWVYSFSYE [PRKDC_Y647]: the enrichment score was inactive: 1.09.

Turning to KGRGEYFAIKA [PRKCD_Y374], the enrichment score is inactive: 1.57.

Take FPLELYERVRI [PRKCG_Y312_M317I_YF]: the enrichment score is inactive: 0.941.

Regarding GSIQQYTFKQE [PRG4_Y1271_I1272T_YF], the enrichment score is inactive: 0.866.

For the molecule CGSLLYGLVHQ [PRKCG_Y122], the enrichment score was inactive: 1.1.

On to LGPSDYFGETA [PRKAR1A_Y323_I327T], for which the enrichment score is inactive: 0.745.

Regarding LMQAEYWHDPI [PPT1_Y185_V181M], the enrichment score is inactive: 1.1.

Turning to FEPWVYSLSFE [PRKDC_Y647_F649L_YF], the enrichment score was inactive: 0.746.

On to PEIIAYQPYGK [PRKCG_Y529], for which the enrichment score was inactive: 0.802.

With FSAPNCCFRCG [PPP2CA_Y265_Y265C_YF], the enrichment score was inactive: 0.583.

Turning to NQILPYIEELV [PPP2R1B_Y341_K343E], the enrichment score was inactive: 0.812.

For the molecule AKKIKYFEGVS [PRKDC_Y682], the enrichment score was inactive: 0.912.

On to RSIGEYDVLRA [PRKDC_Y2936_G2941A], for which the enrichment score is inactive: 0.671.

RGRKVYLEDGF [PRIM2_Y201]: the enrichment score is inactive: 0.217.

As for YPLELYERVRM [PRKCG_Y312], the enrichment score is inactive: 1.09.

GSIQQYIFKQE [PRG4_Y1271_YF]: the enrichment score was inactive: 1.11.

Regarding GSIQQYTYKQE [PRG4_Y1271_I1272T], the enrichment score was inactive: 1.02.

A further assay deals with SHP2 N-SH2 domain T42A. Described as above. The note with it: peptide library: pTyr-Var.
For the molecule CGTPDYIAPEI [PRKCG_Y521], the enrichment score was inactive: 0.511.

As for ECKEAYHEGEC [PRKN_Y372], the enrichment score was inactive: 0.316.

Take FEPWVYSFSYE [PRKDC_Y647]: the enrichment score is inactive: 1.16.

KGRGEYFAIKA [PRKCD_Y374]: the enrichment score was inactive: 1.01.

On to FPLELYERVRI [PRKCG_Y312_M317I_YF], for which the enrichment score is inactive: 1.13.

Consider GSIQQYTFKQE [PRG4_Y1271_I1272T_YF], for which the enrichment score was inactive: 0.794.

On to CGSLLYGLVHQ [PRKCG_Y122], for which the enrichment score is inactive: 1.11.

With LGPSDYFGETA [PRKAR1A_Y323_I327T], the enrichment score was inactive: 0.447.

In the case of LMQAEYWHDPI [PPT1_Y185_V181M], the enrichment score was inactive: 0.862.

For FEPWVYSLSFE [PRKDC_Y647_F649L_YF], the enrichment score is inactive: 0.817.

Take PEIIAYQPYGK [PRKCG_Y529]: the enrichment score was inactive: 0.831.

With FSAPNCCFRCG [PPP2CA_Y265_Y265C_YF], the enrichment score is inactive: 0.762.

As to NQILPYIEELV [PPP2R1B_Y341_K343E], the enrichment score is inactive: 0.764.

For the molecule AKKIKYFEGVS [PRKDC_Y682], the enrichment score is inactive: 0.605.

With RSIGEYDVLRA [PRKDC_Y2936_G2941A], the enrichment score was inactive: 0.641.

As to RGRKVYLEDGF [PRIM2_Y201], the enrichment score is inactive: 0.222.

For the molecule YPLELYERVRM [PRKCG_Y312], the enrichment score was inactive: 0.845.

As to GSIQQYIFKQE [PRG4_Y1271_YF], the enrichment score is inactive: 0.676.

For the molecule GSIQQYTYKQE [PRG4_Y1271_I1272T], the enrichment score is inactive: 0.824.

Another assay addresses SHP2 N-SH2 domain T52S. The assay is described as above. The note with it: peptide library: pTyr-Var.
Take CGTPDYIAPEI [PRKCG_Y521]: the enrichment score is inactive: 0.654.

Consider ECKEAYHEGEC [PRKN_Y372], for which the enrichment score is inactive: 0.562.

For the molecule FEPWVYSFSYE [PRKDC_Y647], the enrichment score is inactive: 1.04.

Consider KGRGEYFAIKA [PRKCD_Y374], for which the enrichment score was inactive: 1.26.

FPLELYERVRI [PRKCG_Y312_M317I_YF]: the enrichment score is inactive: 0.956.

Turning to GSIQQYTFKQE [PRG4_Y1271_I1272T_YF], the enrichment score was inactive: 0.952.

Take CGSLLYGLVHQ [PRKCG_Y122]: the enrichment score is inactive: 1.07.

As to LGPSDYFGETA [PRKAR1A_Y323_I327T], the enrichment score was inactive: 0.581.

With LMQAEYWHDPI [PPT1_Y185_V181M], the enrichment score was inactive: 0.829.

In the case of FEPWVYSLSFE [PRKDC_Y647_F649L_YF], the enrichment score was inactive: 0.99.

For PEIIAYQPYGK [PRKCG_Y529], the enrichment score is inactive: 0.639.

Take FSAPNCCFRCG [PPP2CA_Y265_Y265C_YF]: the enrichment score is inactive: 0.659.

In the case of NQILPYIEELV [PPP2R1B_Y341_K343E], the enrichment score was inactive: 0.77.

Turning to AKKIKYFEGVS [PRKDC_Y682], the enrichment score is inactive: 0.616.

Regarding RSIGEYDVLRA [PRKDC_Y2936_G2941A], the enrichment score is inactive: 0.671.

Turning to RGRKVYLEDGF [PRIM2_Y201], the enrichment score is inactive: 0.233.

On to YPLELYERVRM [PRKCG_Y312], for which the enrichment score was inactive: 1.08.

For GSIQQYIFKQE [PRG4_Y1271_YF], the enrichment score is inactive: 0.635.

As to GSIQQYTYKQE [PRG4_Y1271_I1272T], the enrichment score is inactive: 0.947.

In a further assay the target is SHP2 N-SH2 domain wild-type. Described as above. The note with it: peptide library: pTyr-Var.
For CGTPDYIAPEI [PRKCG_Y521], the enrichment score was inactive: 0.945.

Consider ECKEAYHEGEC [PRKN_Y372], for which the enrichment score is inactive: 0.572.

For FEPWVYSFSYE [PRKDC_Y647], the enrichment score is inactive: 1.4.

On to KGRGEYFAIKA [PRKCD_Y374], for which the enrichment score is inactive: 1.38.

For FPLELYERVRI [PRKCG_Y312_M317I_YF], the enrichment score was inactive: 0.834.

Regarding GSIQQYTFKQE [PRG4_Y1271_I1272T_YF], the enrichment score was inactive: 0.752.

For the molecule CGSLLYGLVHQ [PRKCG_Y122], the enrichment score was inactive: 0.976.

With LGPSDYFGETA [PRKAR1A_Y323_I327T], the enrichment score is inactive: 0.652.

With LMQAEYWHDPI [PPT1_Y185_V181M], the enrichment score is inactive: 1.01.

Take FEPWVYSLSFE [PRKDC_Y647_F649L_YF]: the enrichment score is inactive: 0.896.

As for PEIIAYQPYGK [PRKCG_Y529], the enrichment score is inactive: 0.492.

With FSAPNCCFRCG [PPP2CA_Y265_Y265C_YF], the enrichment score was inactive: 0.69.

NQILPYIEELV [PPP2R1B_Y341_K343E]: the enrichment score was inactive: 0.828.

As for AKKIKYFEGVS [PRKDC_Y682], the enrichment score is inactive: 0.951.

Turning to RSIGEYDVLRA [PRKDC_Y2936_G2941A], the enrichment score is inactive: 1.2.

RGRKVYLEDGF [PRIM2_Y201]: the enrichment score was inactive: 0.185.

With YPLELYERVRM [PRKCG_Y312], the enrichment score was inactive: 1.14.

Consider GSIQQYIFKQE [PRG4_Y1271_YF], for which the enrichment score was inactive: 0.783.

As to GSIQQYTYKQE [PRG4_Y1271_I1272T], the enrichment score is inactive: 1.16.
